The other results are listed elsewhere or left out.

This experiment concerns the target T1, MBP-FoxP1dN (Mus musculus, UniProt P58462 326-579).
T1 sequence: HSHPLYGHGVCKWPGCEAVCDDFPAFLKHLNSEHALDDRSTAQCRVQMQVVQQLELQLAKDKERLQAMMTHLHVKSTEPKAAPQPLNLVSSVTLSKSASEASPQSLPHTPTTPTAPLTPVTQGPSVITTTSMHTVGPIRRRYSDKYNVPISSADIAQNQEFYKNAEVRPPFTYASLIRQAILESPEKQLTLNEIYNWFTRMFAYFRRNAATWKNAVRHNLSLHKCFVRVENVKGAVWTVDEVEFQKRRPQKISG
Put plainly: PD-seq (MBP pull-down with sequencing); 20 mM Tris-HCl pH 7.5, 100 mM NaCl, 1.5 mM MgCl2, 0.4 uM protein, 0.1 uM dsDNA library, 30 min, room temperature, amylose pull-down; high values mean tight binding. The settings on record: protein: recombinant; tags: His6-MBP; chain copies: 2; dsDNA, one strand shown. Summed up: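 Binding is given as reads-per-million enrichment, pull-down over input, with replicates pooled. The bait was an N-terminus-lacking mouse FoxP3 or FoxP1 fragment with a His6-MBP tag, expressed in E. coli and used at 0.4 µM with 0.1 µM Klenow-filled degenerate double-stranded DNA library for 30 min at room temperature in Tris pH 7.5 buffer with NaCl and MgCl2. Amylose resin pull-down with three washes was followed by proteinase K release, PCR barcoding and Illumina sequencing.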
As for “GATGATTGTTCTCCCAGCTGATGAATTTGACAGATCGAGTAAACAAATTTTCCTAATCTTTCTGTTCAAGCGCCATCTAC”, the binding signal is 0.874 RPM ratio (pull-down/input). Regarding “GATGATTGTTCTCCCAGCTGATGAATTTCTGGCGTCGAGTAAACAAATTTTCCTAATCTTTCTGTTCAAGCGCCATCTAC”, the binding signal was 0.836 RPM ratio (pull-down/input). Consider “GATGATTGTTCTCCCAGCTGATGAATTTCTCACTTCGAGTAAACAAATTTTCCTAATCTTTCTGTTCAAGCGCCATCTAC”, for which the binding signal was 0.885 RPM ratio (pull-down/input). In the case of “GATGATTGTTCTCCCAGCTGATGAATTGCAGCGGTCGAGTAAACAAATTTTCCTAATCTTTCTGTTCAAGCGCCATCTAC” it was 1.09 RPM ratio (pull-down/input); in that of “GATGATTGTTCTCCCAGCTGATGAATTCACTTGGTCGAGTAAACAAATTTTCCTAATCTTTCTGTTCAAGCGCCATCTAC”, 0.812 RPM ratio (pull-down/input). In the case of “GATGATTGTTCTCCCAGCTGATGAATTTGTCTTCTCGAGTAAACAAATTTTCCTAATCTTTCTGTTCAAGCGCCATCTAC” it was 1.16 RPM ratio (pull-down/input); in that of “GATGATTGTTCTCCCAGCTGATGAATTTCAACGCTCGAGTAAACAAATTTTCCTAATCTTTCTGTTCAAGCGCCATCTAC”, 0.861 RPM ratio (pull-down/input); in that of “GATGATTGTTCTCCCAGCTGATGAATTGCTCCTCTCGAGTAAACAAATTTTCCTAATCTTTCTGTTCAAGCGCCATCTAC”, 0.978 RPM ratio (pull-down/input). With “GATGATTGTTCTCCCAGCTGATGAATTCTACCGATCGAGTAAACAAATTTTCCTAATCTTTCTGTTCAAGCGCCATCTAC”, the binding signal was 0.879 RPM ratio (pull-down/input). For “GATGATTGTTCTCCCAGCTGATGAATTTGTGAAATCGAGTAAACAAATTTTCCTAATCTTTCTGTTCAAGCGCCATCTAC”, the binding signal was 1.24 RPM ratio (pull-down/input). In the case of “GATGATTGTTCTCCCAGCTGATGAATTATCGGTATCGAGTAAACAAATTTTCCTAATCTTTCTGTTCAAGCGCCATCTAC” it was 1.02 RPM ratio (pull-down/input). As to “GATGATTGTTCTCCCAGCTGATGAATTCGTCTTGTCGAGTAAACAAATTTTCCTAATCTTTCTGTTCAAGCGCCATCTAC”, the binding signal was 0.827 RPM ratio (pull-down/input). In the case of “GATGATTGTTCTCCCAGCTGATGAATTGTTCACCTCGAGTAAACAAATTTTCCTAATCTTTCTGTTCAAGCGCCATCTAC” it was 1.02 RPM ratio (pull-down/input). As to “GATGATTGTTCTCCCAGCTGATGAATTTGGAAGATCGAGTAAACAAATTTTCCTAATCTTTCTGTTCAAGCGCCATCTAC”, the binding signal was 0.918 RPM ratio (pull-down/input).

In the case of “GATGATTGTTCTCCCAGCTGATGAATTTTACACTTCGAGTAAACAAATTTTCCTAATCTTTCTGTTCAAGCGCCATCTAC”, the binding signal was 0.913 RPM ratio (pull-down/input). “GATGATTGTTCTCCCAGCTGATGAATTGCTCTGGTCGAGTAAACAAATTTTCCTAATCTTTCTGTTCAAGCGCCATCTAC”: the binding signal was 0.872 RPM ratio (pull-down/input).

“GATGATTGTTCTCCCAGCTGATGAATTATCTGTATCGAGTAAACAAATTTTCCTAATCTTTCTGTTCAAGCGCCATCTAC”: the binding signal is 1.1 RPM ratio (pull-down/input).

For “GATGATTGTTCTCCCAGCTGATGAATTCGGTGTATCGAGTAAACAAATTTTCCTAATCTTTCTGTTCAAGCGCCATCTAC”, the binding signal was 1.17 RPM ratio (pull-down/input).
